Among the data in a collection of fitness landscapes (doi:10.1038/s41467-024-54723-y) are TetR repression strength values, retold here.

In all, about 18,000 sequences were measured (“TetR repression strength (sort-seq, GFP reporter)”: median about 0.23, highest 2% from about 0.68 on). The list shows a part of the results.

This experiment addresses TetR (class B, Tn10) (UniProt P04483). As to the kind of experiment: TetR repression strength (sort-seq, GFP reporter) (relative to tetO2 = 1); higher = stronger repression. The settings on record: E. coli. Summed up: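 Repression strength is the top bin index plus one minus the read-weighted mean bin, relative to the unaltered operator's value. A low-copy library in E. coli SIG10-MAX randomized eight operator positions between a constitutive promoter and sfGFP, with TetR expressed constitutively; cells grew 5 h at 37 °C in LB with 50 µg/mL chloramphenicol and 10^6 were FACS-sorted into 13 bins that were each Illumina-sequenced. Three independent transformations were averaged, keeping only members with ≥30 reads in all replicates and CV ≤0.5.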
Chain of UniProt P04483 (P04483 whole entry): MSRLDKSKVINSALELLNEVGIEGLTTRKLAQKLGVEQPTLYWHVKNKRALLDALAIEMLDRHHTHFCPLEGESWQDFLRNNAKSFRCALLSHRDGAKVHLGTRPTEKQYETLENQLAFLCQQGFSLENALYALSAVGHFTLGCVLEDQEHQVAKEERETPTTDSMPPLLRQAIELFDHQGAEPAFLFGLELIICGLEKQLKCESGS
As to TCCCATTCAGTTCTAGAGA, the TetR repression strength was found to be 0.515.
Under TCCCACCCAGTGTGGGAGA stands 0.202; under TCCCAACGAGTAACGGAGA, 0.304.
Turning to TCCCGTCTAGTGGGGGAGA, the TetR repression strength turned out to be 0.224.
The result for TCCCCATCAGTGTAGGAGA reads 0.0525; that for TCCCCATTAGTGCCTGAGA, 0.283.
The result for TCCCTTCAAGTCAGAGAGA reads 0.144; that for TCCCCTATAGTAGCGGAGA, 0.0977; that for TCCCAGTAAGTGTCGGAGA, 0.811.
As for TCCCCAGTAGTACCCGAGA, the TetR repression strength came out at 0.269.
The result for TCCCAGACAGTAACAGAGA reads 0.206; that for TCCCTTTGAGTAGAGGAGA, 0.167.
Under TCCCTAGTAGTGTGCGAGA stands 0.0393; under TCCCAGGGAGTGTAAGAGA, 0.179; under TCCCCGTGAGTCTTTGAGA, 0.37.
The result for TCCCCTAAAGTTTTAGAGA reads 0.251; that for TCCCAATCAGTATAGGAGA, 0.361; that for TCCCTGACAGTCGGTGAGA, 0.106.
Turning to TCCCGGCGAGTTGATGAGA, the TetR repression strength was 0.331.
The result for TCCCTCTCAGTGGATGAGA reads 0.386; that for TCCCAGGGAGTGGGAGAGA, 0.127.
Sequence TCCCTGCAAGTGGAAGAGA returned a TetR repression strength of 0.276.
The sequence TCCCTGGGAGTCCCAGAGA displayed a TetR repression strength of 0.115.
Under TCCCCGGTAGTGGTGGAGA stands 0.137.
The result for TCCCTCGTAGTAGAAGAGA reads 0.184; that for TCCCCATTAGTCGCCGAGA, 0.26; that for TCCCGTGTAGTTTCGGAGA, 0.186.
The sequence TCCCATGGAGTGACAGAGA yielded a TetR repression strength of 0.553.
The result for TCCCCAGAAGTGGCTGAGA reads 0.284.
Under TCCCGGTTAGTTCTTGAGA stands 0.0327; under TCCCGGGGAGTTTCAGAGA, 0.249; under TCCCTGTTAGTACGAGAGA, 0.104.
The result for TCCCTTTGAGTGGGGGAGA reads 0.214; that for TCCCGTAAAGTTATAGAGA, 0.17.
The sequence TCCCTTGCAGTATCTGAGA registered a TetR repression strength of 0.0927.
The result for TCCCTTGCAGTCGACGAGA reads 0.213.
Under TCCCTGTGAGTATTGGAGA stands 0.205; under TCCCGCGAAGTGTGAGAGA, 0.286.
TCCCGCGAAGTCGTCGAGA: the TetR repression strength is 0.17.
The result for TCCCATGGAGTACGAGAGA reads 0.181; that for TCCCTCAAAGTGGAAGAGA, 0.199.
The result for TCCCGGGTAGTAAGGGAGA reads 0.163.
Sequence TCCCGGTGAGTTCCCGAGA returned a TetR repression strength of 0.0697.
Under TCCCAGGAAGTTGATGAGA stands 0.143; under TCCCATAGAGTATGGGAGA, 0.0311.
In the case of TCCCCGAGAGTGACAGAGA, the TetR repression strength was 0.213.
The sequence TCCCGAATAGTACTTGAGA gave a TetR repression strength of 0.354.
In turn, TCCCCATAAGTGAGTGAGA yielded a TetR repression strength of 0.4.
The result for TCCCGGATAGTTGATGAGA reads 0.285; that for TCCCAGGAAGTCCTGGAGA, 0.268.
The result for TCCCGGGAAGTGGGAGAGA reads 0.274; that for TCCCAGCTAGTGATAGAGA, 0.626; that for TCCCGTCGAGTGGAGGAGA, 0.193.
The result for TCCCTTCTAGTCTAAGAGA reads 0.306; that for TCCCGAGCAGTAACTGAGA, 0.149.
TCCCTAGTAGTGTCTGAGA gave a TetR repression strength of 0.265.
Under TCCCCATGAGTGCTCGAGA stands 0.394; under TCCCGCATAGTATGTGAGA, 0.222; under TCCCGCACAGTTGGGGAGA, 0.224.
With TCCCCCATAGTTTATGAGA, the TetR repression strength amounted to 0.288.
Under TCCCTCAAAGTGGCTGAGA stands 0.301; under TCCCTGTCAGTGTGAGAGA, 0.0482.
The result for TCCCCGCCAGTGGATGAGA reads 0.377; that for TCCCACACAGTGCAGGAGA, 0.236.
The result for TCCCCTGTAGTCACAGAGA reads 0.104.
Sequence TCCCATCCAGTTGCCGAGA yielded a TetR repression strength of 0.298.
The result for TCCCAAGCAGTTGTGGAGA reads 0.196.
TCCCTGCAAGTTACCGAGA showed a TetR repression strength of 0.263.
TCCCTTTCAGTCGATGAGA: the TetR repression strength came to 0.473.
Under TCCCGAAAAGTTTAAGAGA stands 0.31; under TCCCGGCTAGTACAAGAGA, 0.39; under TCCCTCGTAGTTCGAGAGA, 0.267.
Under TCCCTAGTAGTCGTAGAGA stands 0.272.
The result for TCCCTAAGAGTCTCGGAGA reads 0.0925.
Consider TCCCGTGCAGTAACAGAGA, for which the TetR repression strength is 0.
Under TCCCGCCGAGTCTGAGAGA stands 0.111; under TCCCCCACAGTGACTGAGA, 0.223.
The result for TCCCACTCAGTTGAGGAGA reads 0.0364.
Under TCCCGCTGAGTCATGGAGA stands 0.191; under TCCCGACGAGTGCAAGAGA, 0.352.
With TCCCGGGAAGTCTGGGAGA, the TetR repression strength came out at 1.24.
The result for TCCCGTCAAGTGTCCGAGA reads 0.279; that for TCCCCCGTAGTGCGCGAGA, 0.0565.
On to TCCCTAATAGTAAAGGAGA, for which the TetR repression strength is 0.293.
Under TCCCACGTAGTAGCGGAGA stands 0.125; under TCCCGCAGAGTGGATGAGA, 0.259.
Under TCCCCCCGAGTACAAGAGA stands 0.207.
For TCCCTATCAGTGGGCGAGA, the TetR repression strength worked out at 0.541.
The result for TCCCTAAGAGTCTTCGAGA reads 0.565; that for TCCCTCAGAGTCGGGGAGA, 0.277.
Under TCCCGAAGAGTATAAGAGA stands 0.222; under TCCCCAGGAGTTGCGGAGA, 0.173.
Under TCCCTGTAAGTGCCGGAGA stands 0.312; under TCCCGTGGAGTGGCGGAGA, 0.247.
As for TCCCTATGAGTGGGGGAGA, the TetR repression strength is 0.147.
With TCCCGATCAGTAGACGAGA, the TetR repression strength was found to be 0.237.
The sequence TCCCATGGAGTATGAGAGA came in with a TetR repression strength of 0.417.
The result for TCCCGGACAGTTCGGGAGA reads 0.338; that for TCCCCGAGAGTGAAAGAGA, 0.289; that for TCCCAGGTAGTCACGGAGA, 0.424.
The result for TCCCAAGAAGTGTTGGAGA reads 0.421.
TCCCTCACAGTGTCCGAGA yielded a TetR repression strength of 0.308.
